# Test results reported in PMC9911399, “Two distinct binding modes provide the RNA-binding protein RbFox with extraordinary sequence specificity”.
# Substitutions are numbered along the chain they refer to; changes in the protein carry UniProt numbers. This is one part of the list.
# T1: RBFOX1 RRM (Homo sapiens, UniProt Q9NWB1 109-208)
# T1 sequence: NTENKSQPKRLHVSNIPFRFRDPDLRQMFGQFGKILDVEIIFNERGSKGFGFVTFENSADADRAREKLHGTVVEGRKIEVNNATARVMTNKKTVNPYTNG
# B1: CGAGAGU (DNA:RNA)
# RNA: GGGAGACCGGAAUUCAGAUUGUCCCGAGAGUUUAAAUCCCGUCGUAGCCACCA
# DNA 1: CAATCTGAATTCCGGTCTCCC
# DNA 2: TGGTGGCTACGACGGGATT
# B2: UGAGCCC (DNA:RNA)
# RNA: B1 RNA with C25U, A29C, G30C, U31C
# DNA 1: CAATCTGAATTCCGGTCTCCC
# DNA 2: TGGTGGCTACGACGGGATT
# B3: GCAGCCU (DNA:RNA)
# RNA: B1 RNA with C25G, G26C, A29C, G30C
# DNA 1: CAATCTGAATTCCGGTCTCCC
# DNA 2: TGGTGGCTACGACGGGATT
# B4: CAGACCG (DNA:RNA)
# RNA: B1 RNA with G26A, A27G, G28A, A29C, G30C, U31G
# DNA 1: CAATCTGAATTCCGGTCTCCC
# DNA 2: TGGTGGCTACGACGGGATT
# B5: UGCAUGU (DNA:RNA)
# RNA: B1 RNA with C25U, A27C, G28A, A29U
# DNA 1: CAATCTGAATTCCGGTCTCCC
# DNA 2: TGGTGGCTACGACGGGATT
# B6: GGUUCCU (DNA:RNA)
# RNA: B1 RNA with C25G, A27U, G28U, A29C, G30C
# DNA 1: CAATCTGAATTCCGGTCTCCC
# DNA 2: TGGTGGCTACGACGGGATT
# B7: CGAAACG (DNA:RNA)
# RNA: B1 RNA with G28A, G30C, U31G
# DNA 1: CAATCTGAATTCCGGTCTCCC
# DNA 2: TGGTGGCTACGACGGGATT
# B8: UACACCU (DNA:RNA)
# RNA: B1 RNA with C25U, G26A, A27C, G28A, A29C, G30C
# DNA 1: CAATCTGAATTCCGGTCTCCC
# DNA 2: TGGTGGCTACGACGGGATT
# B9: AGCUGGU (DNA:RNA)
# RNA: B1 RNA with C25A, A27C, G28U, A29G
# DNA 1: CAATCTGAATTCCGGTCTCCC
# DNA 2: TGGTGGCTACGACGGGATT
# B10: CAAUGGA (DNA:RNA)
# RNA: B1 RNA with G26A, G28U, A29G, U31A
# DNA 1: CAATCTGAATTCCGGTCTCCC
# DNA 2: TGGTGGCTACGACGGGATT
# B11: CCGCCGG (DNA:RNA)
# RNA: B1 RNA with G26C, A27G, G28C, A29C, U31G
# DNA 1: CAATCTGAATTCCGGTCTCCC
# DNA 2: TGGTGGCTACGACGGGATT
# B12: AGUGCAC (DNA:RNA)
# RNA: B1 RNA with C25A, A27U, A29C, G30A, U31C
# DNA 1: CAATCTGAATTCCGGTCTCCC
# DNA 2: TGGTGGCTACGACGGGATT
# B13: CUCCAAA (DNA:RNA)
# RNA: B1 RNA with G26U, A27C, G28C, G30A, U31A
# DNA 1: CAATCTGAATTCCGGTCTCCC
# DNA 2: TGGTGGCTACGACGGGATT
# B14: CAUGCGU (DNA:RNA)
# RNA: B1 RNA with G26A, A27U, A29C
# DNA 1: CAATCTGAATTCCGGTCTCCC
# DNA 2: TGGTGGCTACGACGGGATT
# B15: CGGCUAU (DNA:RNA)
# RNA: B1 RNA with A27G, G28C, A29U, G30A
# DNA 1: CAATCTGAATTCCGGTCTCCC
# DNA 2: TGGTGGCTACGACGGGATT
# B16: ACGUAGC (DNA:RNA)
# RNA: B1 RNA with C25A, G26C, A27G, G28U, U31C
# DNA 1: CAATCTGAATTCCGGTCTCCC
# DNA 2: TGGTGGCTACGACGGGATT
# B17: GCUUGUA (DNA:RNA)
# RNA: GGGAGACCGGAAUUCAGAUUGUCCGCUUGUAUUAAAUCCCGUCGUAGCCACCA
# DNA 1: CAATCTGAATTCCGGTCTCCC
# DNA 2: TGGTGGCTACGACGGGATT
# B18: AAGAUCU (DNA:RNA)
# RNA: B1 RNA with C25A, G26A, A27G, G28A, A29U, G30C
# DNA 1: CAATCTGAATTCCGGTCTCCC
# DNA 2: TGGTGGCTACGACGGGATT
# B19: UUAUGCG (DNA:RNA)
# RNA: B17 RNA with G25U, C26U, U27A, U30C, A31G
# DNA 1: CAATCTGAATTCCGGTCTCCC
# DNA 2: TGGTGGCTACGACGGGATT
# B20: AUAAGGA (DNA:RNA)
# RNA: B1 RNA with C25A, G26U, G28A, A29G, U31A
# DNA 1: CAATCTGAATTCCGGTCTCCC
# DNA 2: TGGTGGCTACGACGGGATT
# B21: UUGGAAU (DNA:RNA)
# RNA: B1 RNA with C25U, G26U, A27G, G30A
# DNA 1: CAATCTGAATTCCGGTCTCCC
# DNA 2: TGGTGGCTACGACGGGATT
# B22: CAGCUCU (DNA:RNA)
# RNA: B1 RNA with G26A, A27G, G28C, A29U, G30C
# DNA 1: CAATCTGAATTCCGGTCTCCC
# DNA 2: TGGTGGCTACGACGGGATT
# B23: GACCGAU (DNA:RNA)
# RNA: B17 RNA with C26A, U27C, U28C, U30A, A31U
# DNA 1: CAATCTGAATTCCGGTCTCCC
# DNA 2: TGGTGGCTACGACGGGATT
# B24: GUUUGGC (DNA:RNA)
# RNA: B17 RNA with C26U, U30G, A31C
# DNA 1: CAATCTGAATTCCGGTCTCCC
# DNA 2: TGGTGGCTACGACGGGATT
# B25: UAGGGGG (DNA:RNA)
# RNA: B1 RNA with C25U, G26A, A27G, A29G, U31G
# DNA 1: CAATCTGAATTCCGGTCTCCC
# DNA 2: TGGTGGCTACGACGGGATT
# B26: UGUUGCA (DNA:RNA)
# RNA: B17 RNA with G25U, C26G, U30C
# DNA 1: CAATCTGAATTCCGGTCTCCC
# DNA 2: TGGTGGCTACGACGGGATT
# B27: GCAGACA (DNA:RNA)
# RNA: B1 RNA with C25G, G26C, G30C, U31A
# DNA 1: CAATCTGAATTCCGGTCTCCC
# DNA 2: TGGTGGCTACGACGGGATT
# B28: UCGAACA (DNA:RNA)
# RNA: B17 RNA with G25U, U27G, U28A, G29A, U30C
# DNA 1: CAATCTGAATTCCGGTCTCCC
# DNA 2: TGGTGGCTACGACGGGATT
# B29: UAGGUGU (DNA:RNA)
# RNA: B1 RNA with C25U, G26A, A27G, A29U
# DNA 1: CAATCTGAATTCCGGTCTCCC
# DNA 2: TGGTGGCTACGACGGGATT
# B30: UCGAUCG (DNA:RNA)
# RNA: B17 RNA with G25U, U27G, U28A, G29U, U30C, A31G
# DNA 1: CAATCTGAATTCCGGTCTCCC
# DNA 2: TGGTGGCTACGACGGGATT
# B31: AAGUAUG (DNA:RNA)
# RNA: B17 RNA with G25A, C26A, U27G, G29A, A31G
# DNA 1: CAATCTGAATTCCGGTCTCCC
# DNA 2: TGGTGGCTACGACGGGATT
# Biological target: T1, RBFOX1 RRM
# Assay: EMSA; HiTS-Eq, 1 nM pool, 10 min; buffer printed only for the single-RNA assays: 10 mM Tris pH 7.5, 150 mM NaCl, 3.4 mM EDTA, 0.001% NP-40, 30 C
# Conditions: tags: His6 N-terminal (pET28a); label: 5' 32P
# Procedure, shortened: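 Purified RbFox RRM, wild type or mutant, was incubated for 10 min in 50 µL with 1 nM of a 5′-radiolabelled RNA pool carrying 7 randomized nucleotides, whose flanks were annealed to DNA oligonucleotides, over a series of increasing protein concentrations. Unbound RNA was resolved on 8% native PAGE, cut out, reverse-transcribed, barcoded by PCR and sequenced on an Illumina HiSeq 2500. Relative association constants were derived from changes in read counts for each RNA species versus the control reaction and normalised to the cognate motif.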
row,Binder,binding signal
1,B1,0.0127 KA relative to UGCAUGU
2,B2,0.00852 KA relative to UGCAUGU
3,B3,0.00879 KA relative to UGCAUGU
4,B4,0.00701 KA relative to UGCAUGU
5,B5,1 KA relative to UGCAUGU
6,B6,0.0145 KA relative to UGCAUGU
7,B7,0.00807 KA relative to UGCAUGU
8,B8,0.00235 KA relative to UGCAUGU
9,B9,0.0157 KA relative to UGCAUGU
10,B10,0.00499 KA relative to UGCAUGU
11,B11,0.0135 KA relative to UGCAUGU
12,B12,0.0117 KA relative to UGCAUGU
13,B13,0.00145 KA relative to UGCAUGU
14,B14,0.0103 KA relative to UGCAUGU
15,B15,0.0107 KA relative to UGCAUGU
16,B16,0.00592 KA relative to UGCAUGU

row,Binder,binding signal
1,B17,0.019 KA relative to UGCAUGU
2,B18,0.00387 KA relative to UGCAUGU
3,B19,0.019 KA relative to UGCAUGU
4,B20,0.000692 KA relative to UGCAUGU
5,B21,0.0191 KA relative to UGCAUGU
6,B22,0.006 KA relative to UGCAUGU
7,B23,0.016 KA relative to UGCAUGU
8,B24,0.0149 KA relative to UGCAUGU
9,B25,0.00978 KA relative to UGCAUGU
10,B26,0.0315 KA relative to UGCAUGU
11,B27,0.00524 KA relative to UGCAUGU
12,B28,0.00827 KA relative to UGCAUGU
13,B29,0.0263 KA relative to UGCAUGU
14,B30,0.0209 KA relative to UGCAUGU
15,B31,0.0139 KA relative to UGCAUGU
